According to article PMC4336329 (PLoS ONE, 2015):
The campaign covered roughly 310,000 compounds. About 2,200 (0.71%) showed an effect of 50% or more. Effects have a minus sign here. The list shows a part of the results.

Target: human ether-à-go-go-related gene (hERG) potassium channel (human, UniProt Q12809)
Assay: primary screen, population patch clamp on CHO cells stably expressing hERG

Chain of human ether-à-go-go-related gene (hERG) potassium channel (Q12809 whole entry, looked up): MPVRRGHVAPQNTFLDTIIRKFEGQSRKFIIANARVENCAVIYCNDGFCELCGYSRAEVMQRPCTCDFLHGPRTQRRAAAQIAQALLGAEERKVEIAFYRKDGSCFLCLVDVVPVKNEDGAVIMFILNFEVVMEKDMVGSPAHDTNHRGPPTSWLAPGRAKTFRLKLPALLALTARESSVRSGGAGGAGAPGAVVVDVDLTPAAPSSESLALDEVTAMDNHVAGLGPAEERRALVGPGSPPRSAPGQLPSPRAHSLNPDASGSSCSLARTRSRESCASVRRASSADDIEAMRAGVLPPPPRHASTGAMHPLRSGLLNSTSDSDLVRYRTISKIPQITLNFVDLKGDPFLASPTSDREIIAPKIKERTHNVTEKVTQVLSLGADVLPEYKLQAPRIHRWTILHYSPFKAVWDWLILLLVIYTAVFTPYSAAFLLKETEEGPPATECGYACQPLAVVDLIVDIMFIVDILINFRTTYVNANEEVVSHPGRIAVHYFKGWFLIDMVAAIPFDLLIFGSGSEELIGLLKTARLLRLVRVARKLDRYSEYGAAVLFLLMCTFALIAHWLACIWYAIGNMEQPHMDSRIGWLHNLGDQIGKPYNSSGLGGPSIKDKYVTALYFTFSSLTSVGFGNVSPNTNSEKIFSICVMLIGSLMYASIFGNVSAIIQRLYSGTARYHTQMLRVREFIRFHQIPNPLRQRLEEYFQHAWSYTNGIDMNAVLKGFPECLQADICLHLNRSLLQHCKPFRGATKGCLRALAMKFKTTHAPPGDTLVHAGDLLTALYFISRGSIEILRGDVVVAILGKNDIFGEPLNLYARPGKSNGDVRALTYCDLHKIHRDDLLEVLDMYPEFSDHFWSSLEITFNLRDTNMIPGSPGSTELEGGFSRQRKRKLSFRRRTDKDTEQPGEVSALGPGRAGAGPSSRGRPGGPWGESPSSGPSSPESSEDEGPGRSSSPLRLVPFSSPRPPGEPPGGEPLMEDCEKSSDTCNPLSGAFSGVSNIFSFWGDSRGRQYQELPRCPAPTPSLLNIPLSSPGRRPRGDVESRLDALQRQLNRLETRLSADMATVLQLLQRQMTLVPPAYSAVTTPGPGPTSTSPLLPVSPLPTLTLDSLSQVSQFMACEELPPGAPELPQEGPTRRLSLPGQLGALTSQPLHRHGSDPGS

SMILES | hERG current change (%, negative = inhibition) at 1uM
CN(C)Cc1cnc2ccc(Cl)cn12 | -3.71%
O=c1c2ccccc2nnn1CSc1nc2sc3c(c2c(=O)n1CC1CCCO1)CCC3 (stereo not drawn) | 5.04%
CCOCCCNCc1c(Cl)cccc1Cl | 7.62%
COc1ccc(NC(=O)CSCc2ccccc2C)cc1 | 10.5%
COc1cc(S(=O)(=O)NC2CCCCC2)ccc1F | 8.5%
CCC(C(=O)OCC(=O)c1ccc(OC)cc1OC)c1ccccc1 (stereo not drawn) | 4.12%
CCOc1cc(/C=N/Nc2ncc(C)c(=O)[nH]2)ccc1O | 13.5%
CS(=O)(=O)c1ccc(C(=O)N(Cc2ccccc2)c2ccccc2)cc1 | 21.4%
CC(=O)C1=C(O)C(=O)N(c2ccccn2)C1c1ccc(Cl)cc1 (stereo not drawn) | 23.9%
CC(=O)Nc1cccc(OCc2cnc(Cl)s2)c1 | 13.5%
CCOc1ccc(S(=O)(=O)NCCC(=O)NCC(C)(C)N2CCOCC2)cc1 | 11.5%
CN(C(=O)CSc1ncnc2sc3c(c12)CCC3)C1CCS(=O)(=O)C1 (stereo not drawn) | 6.72%
O=C(c1ccc(S(=O)(=O)N2CCCC2)cc1)N1CCCc2ccccc21 | 5.56%
Cc1sc(-c2ccccn2)nc1OC(=O)c1ccc(Cl)c(Cl)c1 | 9.69%
COc1ccc(Cc2nn3c(-c4ccccc4OC)nnc3s2)cc1 | -16.6%
CCCOc1ccc(/C=C/C(=O)NC2CCCCC2)cc1OC | 12.6%
CC(=O)N1CCN(C(=S)c2ccc([N+](=O)[O-])cc2)CC1 | 5.81%
Cc1nc2ccccc2n1CC(O)Cn1c(C(F)(F)F)nc2ccccc21 (stereo not drawn) | 11.8%
CCOC(=O)c1cnc2nc(C)nn2c1N | -8.31%
O=C(/C=C/c1ccc(Cl)cc1)c1ccc([N+](=O)[O-])o1 | 17.3%

SMILES | hERG current change (%, negative = inhibition) at 1uM
O=C(CN1CCOCC1)NCCNS(=O)(=O)c1ccccc1 | 12.2%
CCN(CC)S(=O)(=O)c1ccc(C(=O)NCC(c2ccc(OC)cc2)N2CCOCC2)cc1 (stereo not drawn) | 9.24%
Nc1cc(Cl)ccc1N1CCCCC1 | 10.3%
C/C(=N\Nc1ccc2nncn2n1)c1ccco1 | 14.4%
O=C(COC(=O)c1ccco1)Nc1ccc2[nH]c(=O)[nH]c2c1 | 5.03%
Cc1nnc(NCc2cccc(Cl)c2)c2ccccc12 | 0.0332%
CCOC(=O)c1cc(NC(=O)c2cccnc2)cc(C(=O)OCC)c1 | 5.43%
COc1ccc(C(=O)N2CCN(C(=O)CC(C)C)CC2)cc1OC | 10.1%
Cc1ccc(/C=N/n2c(C)nnc2C)o1 | 9%
Cc1cnc(NC(=O)NCC2CCCC(CNC(=O)Nc3ncc(C)s3)C2)s1 (stereo not drawn) | 17.6%
Cn1c(N)c(C(=O)CSc2ccccn2)c(=O)n(C)c1=O | 13.9%
Cc1cccc(/N=C/c2c(O)[nH]c3ccccc23)n1 | 5.89%
Cc1cc(Nc2nc3c(c(=O)n(C)c(=O)n3C)n2C)n(-c2ccc(Cl)cc2)n1 | 0.849%
CC(C)N1CCN(Cc2ccc3c(c2)Cc2ccccc2-3)CC1CCO (stereo not drawn) | 2.3%
O=C(CN1C(=O)NC2(CCCC2)C1=O)OCCOc1ccccc1Cl | 6.21%
Brc1ccsc1-c1csc(-c2ccncc2)n1 | 16.1%
Oc1ccc(-c2nnc(-c3ccccc3)c(-c3ccccc3)n2)cc1 | 6.87%
CCOC(=O)c1c(N)n(CCCOC(=O)c2ccco2)c2nc3ccccc3nc12 | 9%
COc1ccc(-c2csc(NC(=O)COC(=O)Cc3ccccc3)n2)cc1OC | 16%
CN1CCC(N(C)Cc2cccnc2)CC1 | 2.12%

SMILES | hERG current change (%, negative = inhibition) at 1uM
CC(=O)N1CCC(C(=O)N2CCN(S(=O)(=O)c3ccc(F)cc3)CC2)CC1 | -0.492%
O=C1CC(c2ccccc2)CC(O)=C1C=NCC1CCCO1 (stereo not drawn) | 6.56%
Cn1nc(C(F)(F)F)c(CO)c1Sc1ccc(F)cc1 | 8.79%
CCCCOC(=O)C1=C(N)OC2=C(C(=O)CCC2)[C@]12C(=O)Nc1ccccc12 | 8.45%
Cc1ccc(Cn2ccc(NC(=O)c3noc4c3CCCC4)n2)cc1 | -2.04%
O=c1ccc2cc(S(=O)(=O)N3CCN(c4cc(Cl)ccc4Cl)CC3)ccc2o1 | 5.49%
CCn1c(-c2cc(Cl)ccc2OC)n[nH]c1=S | -5.42%
CCCOc1ccc(-c2c(C(=O)N/N=C/c3ccco3)nnn2-c2nonc2N)cc1 | 17.3%
CC(=O)N1CCN(CCN=CC2=C(O)CC(c3ccc(Cl)cc3)CC2=O)CC1 (stereo not drawn) | -4.18%
CCO.Cc1nn(-c2ccccc2)c(Cl)c1C1C(C#N)=C(N)Oc2c1c(C)nn2-c1ccccc1 (stereo not drawn) | 10.7%
Cn1c(=O)[nH]c(=O)c2c1nc(Br)n2CCC(=O)c1ccccc1 | 16.6%
Cc1ccc(-n2nc3c(c2NC(=O)c2cccs2)CS(=O)(=O)C3)c(C)c1 | 8.74%
N#Cc1nc(-c2ccccc2F)oc1NCc1cccc2c1OCO2 | -10.9%
Cc1ccc(CN2CCN(/N=C/c3cccnc3)CC2)cc1 | -1.07%
O=S(=O)(Nc1ccccc1O)c1ccc(Cl)nc1 | 11.1%
CC(CN1CCC(O)CC1)c1ccccc1 (stereo not drawn) | 14.2%
COCCCNC(=O)CN(c1cc(Cl)ccc1OC)S(C)(=O)=O | 16%
CC1CCCCN1C(=O)COC(=O)c1cc(-c2cccs2)nn1-c1ccccc1 (stereo not drawn) | 10.4%
O=C(CSc1nnc(C2COc3ccccc3O2)o1)N1CCCC1 (stereo not drawn) | 12.4%
COc1cc(C(=O)OCCCOC(=O)c2cc(OC)c(OC)c(OC)c2)cc(OC)c1OC | 8.68%
